Test results reported in the BET-seq Pho4 binding data (Le et al. 2018).
The list shows a part of the results. The energies were worked out here from pooled read counts, against the library average; single values are noisy.

biological target: T1, Pho4 (S. cerevisiae) (UniProt P07270); test: relative binding free energy (BET-seq); higher = weaker binding; details: reference: library average
T1 sequence: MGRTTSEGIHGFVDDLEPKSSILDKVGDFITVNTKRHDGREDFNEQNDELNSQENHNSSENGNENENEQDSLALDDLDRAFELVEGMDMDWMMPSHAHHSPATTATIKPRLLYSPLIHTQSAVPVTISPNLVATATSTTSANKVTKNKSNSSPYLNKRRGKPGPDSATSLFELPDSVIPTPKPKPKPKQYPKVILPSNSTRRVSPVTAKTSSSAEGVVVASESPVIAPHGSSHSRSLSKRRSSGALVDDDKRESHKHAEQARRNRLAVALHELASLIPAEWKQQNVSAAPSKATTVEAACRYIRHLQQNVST

Q: With TTGTGCACGTGGAAAT as the sequence, how does the “relative binding free energy” value read?
A: 0.13 kcal/mol

Q: How did the “relative binding free energy” value turn out when CTTTGCACGTGTGAGG was run?
A: 0.13 kcal/mol

Q: AATGGCACGTGGTATC was tested. Which “relative binding free energy” value did it give?
A: -0.16 kcal/mol

Q: With GCGGTCACGTGGTAGG as the sequence, how does the “relative binding free energy” value read?
A: 0.15 kcal/mol

Q: How did the “relative binding free energy” value turn out when GATGGCACGTGGTCGG was run?
A: -0.16 kcal/mol

Q: Which “relative binding free energy” value does the source give for CGGCGCACGTGTGGGC here?
A: -0.09 kcal/mol

Q: Which “relative binding free energy” value does the source give for AGGTGCACGTGAGCGC here?
A: 0.11 kcal/mol

Q: With TTTAGCACGTGTGTTA as the sequence, how does the “relative binding free energy” value read?
A: -0.03 kcal/mol

Q: Which “relative binding free energy” value does the source give for TGGAGCACGTGATGCG here?
A: -0.02 kcal/mol

Q: How did the “relative binding free energy” value turn out when TGAGCCACGTGGGGAA was run?
A: -0.12 kcal/mol

Q: AGTGACACGTGGTATA was tested. Which “relative binding free energy” value did it give?
A: -0.17 kcal/mol

Q: For TTTATCACGTGATTCG, which “relative binding free energy” value is on record?
A: 0.12 kcal/mol

Q: With GTTTGCACGTGCGCTT as the sequence, how does the “relative binding free energy” value read?
A: -0.1 kcal/mol

Q: TCTAACACGTGTTGTT was tested. Which “relative binding free energy” value did it give?
A: -0.02 kcal/mol

Q: Which “relative binding free energy” value does the source give for GATCGCACGTGGAAGT here?
A: 0.19 kcal/mol

Q: For TAGTGCACGTGTCTGT, which “relative binding free energy” value is on record?
A: -0.12 kcal/mol

Q: How did the “relative binding free energy” value turn out when GTTGACACGTGAGGTC was run?
A: 0.21 kcal/mol

Q: For CGGTGCACGTGGTGCA, which “relative binding free energy” value is on record?
A: -0.24 kcal/mol

Q: For TGGTGCACGTGTCAAG, which “relative binding free energy” value is on record?
A: -0.07 kcal/mol

Q: TACTTCACGTGTAGGT was tested. Which “relative binding free energy” value did it give?
A: 0.17 kcal/mol

Q: AATAACACGTGGTATT was tested. Which “relative binding free energy” value did it give?
A: -0.09 kcal/mol

Q: With TTCATCACGTGTAGGC as the sequence, how does the “relative binding free energy” value read?
A: 0.24 kcal/mol

Q: For GGTGTCACGTGTGTAC, which “relative binding free energy” value is on record?
A: 0.24 kcal/mol

Q: With TAATTCACGTGAGTTA as the sequence, how does the “relative binding free energy” value read?
A: 0.35 kcal/mol

Q: How did the “relative binding free energy” value turn out when GATGTCACGTGATGAA was run?
A: 0.44 kcal/mol

Q: For TTGGTCACGTGGGACA, which “relative binding free energy” value is on record?
A: 0.02 kcal/mol

Q: How did the “relative binding free energy” value turn out when ATTTACACGTGGTTAG was run?
A: 0.15 kcal/mol

Q: How did the “relative binding free energy” value turn out when TAGGGCACGTGGTGGA was run?
A: -0.02 kcal/mol

Q: How did the “relative binding free energy” value turn out when CGATTCACGTGGTAGT was run?
A: 0.21 kcal/mol

Q: TCATTCACGTGGTGGG was tested. Which “relative binding free energy” value did it give?
A: 0.37 kcal/mol

Q: How did the “relative binding free energy” value turn out when TATGACACGTGGTGAG was run?
A: 0.14 kcal/mol

Q: For GTTCCCACGTGGTTTG, which “relative binding free energy” value is on record?
A: 0.03 kcal/mol

Q: With TGTATCACGTGTAACG as the sequence, how does the “relative binding free energy” value read?
A: 0.19 kcal/mol

Q: For TGAGTCACGTGTATTT, which “relative binding free energy” value is on record?
A: 0.29 kcal/mol

Q: TTTCTCACGTGGAAGG was tested. Which “relative binding free energy” value did it give?
A: 0.27 kcal/mol

Q: For GGGGTCACGTGTTCAG, which “relative binding free energy” value is on record?
A: 0.24 kcal/mol

Q: For ACGTTCACGTGGGATT, which “relative binding free energy” value is on record?
A: 0.22 kcal/mol

Q: For TAAATCACGTGTTTTG, which “relative binding free energy” value is on record?
A: 0.16 kcal/mol

Q: How did the “relative binding free energy” value turn out when GGTGGCACGTGTGCTC was run?
A: 0.07 kcal/mol

Q: Which “relative binding free energy” value does the source give for TGAGTCACGTGTTCCG here?
A: 0.19 kcal/mol

Q: How did the “relative binding free energy” value turn out when TGTGCCACGTGGAGCG was run?
A: -0.19 kcal/mol

Q: With GTTGACACGTGTCGAG as the sequence, how does the “relative binding free energy” value read?
A: 0.14 kcal/mol

Q: TGGCACACGTGTTGGC was tested. Which “relative binding free energy” value did it give?
A: 0.17 kcal/mol

Q: How did the “relative binding free energy” value turn out when AATTTCACGTGAGGCA was run?
A: 0.41 kcal/mol

Q: With TTCTGCACGTGGACGT as the sequence, how does the “relative binding free energy” value read?
A: 0.09 kcal/mol

Q: Which “relative binding free energy” value does the source give for TTGTTCACGTGTGACA here?
A: 0.22 kcal/mol

Q: With AGTAGCACGTGCTTGG as the sequence, how does the “relative binding free energy” value read?
A: -0.06 kcal/mol

Q: Which “relative binding free energy” value does the source give for ATTATCACGTGGGTTC here?
A: -0.01 kcal/mol

Q: How did the “relative binding free energy” value turn out when AGAATCACGTGGGATT was run?
A: 0.04 kcal/mol

Q: For GTAAACACGTGGCTTT, which “relative binding free energy” value is on record?
A: 0.2 kcal/mol

Q: For AGCGTCACGTGTGTGA, which “relative binding free energy” value is on record?
A: -0.03 kcal/mol

Q: How did the “relative binding free energy” value turn out when GGGGGCACGTGTCATG was run?
A: -0.16 kcal/mol

Q: TTGGGCACGTGATTCG was tested. Which “relative binding free energy” value did it give?
A: 0.06 kcal/mol

Q: Which “relative binding free energy” value does the source give for TGGTGCACGTGCGCTT here?
A: -0.21 kcal/mol

Q: For TGCGACACGTGCGGGG, which “relative binding free energy” value is on record?
A: -0.22 kcal/mol

Q: With CGGTGCACGTGTTGGA as the sequence, how does the “relative binding free energy” value read?
A: -0.05 kcal/mol

Q: With TAGATCACGTGTGATA as the sequence, how does the “relative binding free energy” value read?
A: 0.23 kcal/mol

Q: With ATCTGCACGTGTGGTG as the sequence, how does the “relative binding free energy” value read?
A: -0.06 kcal/mol

Q: GGTTGCACGTGGTTAA was tested. Which “relative binding free energy” value did it give?
A: -0.02 kcal/mol

Q: GTGTGCACGTGGCAGC was tested. Which “relative binding free energy” value did it give?
A: -0.06 kcal/mol

Q: With TGGGTCACGTGAGAGA as the sequence, how does the “relative binding free energy” value read?
A: 0.36 kcal/mol

Q: With TGGCACACGTGTGAGT as the sequence, how does the “relative binding free energy” value read?
A: 0.12 kcal/mol

Q: For GCTTTCACGTGATTTG, which “relative binding free energy” value is on record?
A: 0.36 kcal/mol

Q: For AAGTTCACGTGTAAAT, which “relative binding free energy” value is on record?
A: 0.5 kcal/mol

Q: Which “relative binding free energy” value does the source give for AAGTACACGTGTTGGC here?
A: 0.03 kcal/mol

Q: How did the “relative binding free energy” value turn out when GCGGTCACGTGTCGTG was run?
A: 0.1 kcal/mol

Q: For CGTGGCACGTGGTACG, which “relative binding free energy” value is on record?
A: -0.27 kcal/mol

Q: Which “relative binding free energy” value does the source give for GATTTCACGTGTTGGG here?
A: 0.39 kcal/mol

Q: CTTTGCACGTGCGGAG was tested. Which “relative binding free energy” value did it give?
A: -0.04 kcal/mol

Q: How did the “relative binding free energy” value turn out when ATAGTCACGTGGCATT was run?
A: -0.03 kcal/mol

Q: How did the “relative binding free energy” value turn out when AAGTGCACGTGGTAGA was run?
A: -0.07 kcal/mol

Q: With TTGGACACGTGGTGGC as the sequence, how does the “relative binding free energy” value read?
A: 0.1 kcal/mol

Q: With ATTTGCACGTGGGTGT as the sequence, how does the “relative binding free energy” value read?
A: -0.13 kcal/mol

Q: Which “relative binding free energy” value does the source give for TAGGACACGTGCGGTG here?
A: -0.03 kcal/mol

Q: How did the “relative binding free energy” value turn out when AGGTGCACGTGTCTTT was run?
A: -0.18 kcal/mol

Q: Which “relative binding free energy” value does the source give for AAGGGCACGTGAGCGC here?
A: 0.13 kcal/mol

Q: GAAATCACGTGGGAGT was tested. Which “relative binding free energy” value did it give?
A: 0.13 kcal/mol

Q: TTTCTCACGTGGGGTG was tested. Which “relative binding free energy” value did it give?
A: 0.04 kcal/mol

Q: With TAGGTCACGTGAAGAG as the sequence, how does the “relative binding free energy” value read?
A: 0.23 kcal/mol

Q: TCATTCACGTGTAGAG was tested. Which “relative binding free energy” value did it give?
A: 0.34 kcal/mol

Q: With TAAGTCACGTGTCTTG as the sequence, how does the “relative binding free energy” value read?
A: 0.08 kcal/mol

Q: With AGGATCACGTGCAGGG as the sequence, how does the “relative binding free energy” value read?
A: 0.07 kcal/mol

Q: Which “relative binding free energy” value does the source give for ATGTTCACGTGTGTTC here?
A: 0.15 kcal/mol

Q: Which “relative binding free energy” value does the source give for TTGGACACGTGCGGGA here?
A: 0.08 kcal/mol

Q: How did the “relative binding free energy” value turn out when CTTGACACGTGGGTAG was run?
A: -0.14 kcal/mol

Q: How did the “relative binding free energy” value turn out when TATAGCACGTGCGTTT was run?
A: -0.11 kcal/mol

Q: With CAAGTCACGTGAGTTG as the sequence, how does the “relative binding free energy” value read?
A: 0.29 kcal/mol

Q: Which “relative binding free energy” value does the source give for GAAGACACGTGCTGGT here?
A: 0.16 kcal/mol

Q: Which “relative binding free energy” value does the source give for GAAGGCACGTGTGTAA here?
A: -0.06 kcal/mol

Q: With GCGAGCACGTGTGTAT as the sequence, how does the “relative binding free energy” value read?
A: 0.01 kcal/mol

Q: With TGTTTCACGTGAAGGA as the sequence, how does the “relative binding free energy” value read?
A: 0.44 kcal/mol

Q: Which “relative binding free energy” value does the source give for TCTATCACGTGTGAAT here?
A: 0.26 kcal/mol

Q: Which “relative binding free energy” value does the source give for GCTGACACGTGAGGGT here?
A: 0.13 kcal/mol

Q: Which “relative binding free energy” value does the source give for ATGCTCACGTGTTGGT here?
A: 0.05 kcal/mol

Q: How did the “relative binding free energy” value turn out when GTATGCACGTGCGCGT was run?
A: -0.24 kcal/mol

Q: With TGGGACACGTGTTTTT as the sequence, how does the “relative binding free energy” value read?
A: 0.17 kcal/mol

Q: For TTTTTCACGTGGATGA, which “relative binding free energy” value is on record?
A: 0.29 kcal/mol

Q: AGTTACACGTGCGGTC was tested. Which “relative binding free energy” value did it give?
A: 0.1 kcal/mol

Q: How did the “relative binding free energy” value turn out when TATGCCACGTGGTAGT was run?
A: -0.08 kcal/mol

Q: For GTGACCACGTGTGAGT, which “relative binding free energy” value is on record?
A: 0.15 kcal/mol

Q: How did the “relative binding free energy” value turn out when CGAAGCACGTGAGGGA was run?
A: 0.19 kcal/mol

Q: TTCTTCACGTGCGTGT was tested. Which “relative binding free energy” value did it give?
A: 0.28 kcal/mol

Q: CATTGCACGTGGTTGG was tested. Which “relative binding free energy” value did it give?
A: -0.08 kcal/mol

Q: For GTCTGCACGTGGTGTT, which “relative binding free energy” value is on record?
A: -0.08 kcal/mol

Q: How did the “relative binding free energy” value turn out when GGTGACACGTGCATTT was run?
A: 0.03 kcal/mol

Q: Which “relative binding free energy” value does the source give for ATAGACACGTGGTGTT here?
A: -0.08 kcal/mol

Q: ATGTGCACGTGTGTAA was tested. Which “relative binding free energy” value did it give?
A: 0 kcal/mol

Q: For GTGAACACGTGATTGT, which “relative binding free energy” value is on record?
A: 0.05 kcal/mol

Q: Which “relative binding free energy” value does the source give for GAGAACACGTGGGCGG here?
A: -0.07 kcal/mol

Q: For TGCGGCACGTGCCTGG, which “relative binding free energy” value is on record?
A: -0.09 kcal/mol

Q: With AGCCGCACGTGTTGGG as the sequence, how does the “relative binding free energy” value read?
A: -0.04 kcal/mol

Q: For AGGTTCACGTGTATCG, which “relative binding free energy” value is on record?
A: 0.15 kcal/mol

Q: With TAGTCCACGTGAGGTG as the sequence, how does the “relative binding free energy” value read?
A: 0.28 kcal/mol

Q: For ATGGTCACGTGGTTTC, which “relative binding free energy” value is on record?
A: 0.1 kcal/mol

Q: Which “relative binding free energy” value does the source give for TTAGTCACGTGGCAAA here?
A: 0.12 kcal/mol
